The values below come from the supplement of paper PMC12217912.

First the molecules themselves.
B1: TEV protease; numbered along this chain (parent)
chain: MGESLFKGPRDYNPISSSICHLTNESDGHTTSLYGIGFGPFIITNKHLFRRNNGTLVVQSLHGVFKVKDTTTLQQHLVDGRDMIIIRMPKDFPPFPQKLKFREPQREERICLVTTNFQTKSMSSMVSDTSCTFPSGDGIFWKHWIQTKDGQCGSPLVSTRDGFIVGIHSASNFTNTNNYFTSVPKNFMELLTNQEAQQWVSGWRLNADSVLWGGHKVFMVKPEEPFQPVKEATQL

Some of the results follow. Sequences were assembled here from the parent chain. Inactive controls read about 0.05.

The variants in the experiment derive from B1. Kind of experiment: raw area under fraction-flipped curve 0-4 h after induction (AUC4h, not background-subtracted), DNA-recorder readout of cleavage of the substrate (dimensionless); higher = more cleavage of the substrate by the protease variant. To be noted: temperature: 34 °C; time window: 0-4 h after rhamnose induction.
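Also: Bxb1 expression induced with 0.2% (w/v) L-rhamnose at OD600 near 0.5, cultures sampled hourly, flipped fraction per protease–substrate barcode pair counted by paired-end Illumina sequencing.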

Take MGESLFKGPRDYNPISSSICHLTNESDGHTTSLYGIGFGPFIITNKHLFRRNNGTLVVQSLHGVFKVKDTTTLQQHLVDGRDMIIIRMPKDFPPFPQKLKFREPYREERICLVTTNFQTKSMSSMVSDTSCTFPSGDGIFWKHWIQTKDGQCGSPLVSTRDGFIVGIHSASNFTNTNNYFTSVPKNFMELLTNQEAQQWVSGWRLNADSVLWGGHKVFMVKPEEPFQPVKEATQL [Q105Y]: the “area with substrate ENLYFCS” value was 0.0442, the “area with substrate ENLYFES” value came out at 0.0548, the “area with substrate ENLYFFS” value was 0.0833 and the “area with substrate ENLYFGS” value was 0.0636. Also, the “area with substrate ENLYFHS” value amounted to 0.0595, the “area with substrate ENLYFIS” value is 0.0572, the “area with substrate ENLYFMS” value was determined as 0.0717 and the “area with substrate ENLYFNS” value was determined as 0.0747. Besides, the “area with substrate ENLYFPS” value came to 0.047, the “area with substrate ENLYFRS” value came out at 0.0313, the “area with substrate ENLYFSS” value came to 0.0612 and the “area with substrate ENLYFWS” value came out at 0.054. The “area with substrate ENLYFYS” value was determined as 0.0602.
Regarding MGESLFKGPRDYNPISSSICHLTNESDGHTTSLYGIGFGPFIITNKHLFRRNNGTLVVQSLHGVFKVKDTTTLQQHLVDGRDMIIIRMPKDFPPFPQKLHFREPQREERICLVTTNFQTKSMSSMVSDTSCTFPSGDGIFWKHWIQTKDGQCGSPLVSTRDGFIVGIHSASNFTNTNNYFTSVPKNFMELLTNQEAQQWVSGWRLNADSVLWGGHKVFMVKPEEPFQPVKEATQL [K100H], the “area with substrate ENLYFCS” value turned out to be 0.0525, the “area with substrate ENLYFDS” value came out at 0.0611, the “area with substrate ENLYFFS” value stood at 0.0644 and the “area with substrate ENLYFHS” value was determined as 0.0574. The “area with substrate ENLYFIS” value was 0.0575, the “area with substrate ENLYFKS” value was found to be 0.0692, the “area with substrate ENLYFLS” value turned out to be 0.0123 and the “area with substrate ENLYFMS” value came to 0.0578. The “area with substrate ENLYFNS” value stood at 0.0272, the “area with substrate ENLYFPS” value amounted to 0.0651, the “area with substrate ENLYFRS” value came to 0.0671 and the “area with substrate ENLYFTS” value worked out at 0.0701. Also, the “area with substrate ENLYFWS” value is 0.0534 and the “area with substrate ENLYFYS” value was 0.0592.
In the case of MGESLFKGPRDYNPISSSICHLTNESDGHTTSLYGIGFGPFIITNKHLFRRNNGTLVVQSLHGVFKVKDTTTLQQHLVDGRDMIIIRMPKQFPPFPQKLKFREPQREERICLVTTNFQTKSMSSMVSDTSCTFPSGDGIFWKHWIQTKDGQCGSPLVSTRDGFIVGIHSASNFTNTNNYFTSVPKNFMELLTNQEAQQWVSGWRLNADSVLWGGHKVFMVKPEEPFQPVKEATQL [D91Q], the “area with substrate ENLYFCS” value is 0.0567, the “area with substrate ENLYFES” value was 0.0656, the “area with substrate ENLYFFS” value turned out to be 0.0615 and the “area with substrate ENLYFIS” value came to 0.0534. The “area with substrate ENLYFMS” value was 0.0562, the “area with substrate ENLYFPS” value was found to be 0.0684 and the “area with substrate ENLYFTS” value was determined as 0.0663.
Consider MGESLFKGPRDYNPISSSICHLTNESDGHTTSLYGIGFGPFIITNKHLFRRNNGTLVVQSLHGVFKVKDTTTLQQHLVDGRDMFIIRMPKDFPPFPQKLKFREPQREERICLVTTNFQTKSMSSMVSDTSCTFPSGDGIFWKHWIQTKDGQCGSPLVSTRDGFIVGIHSASNFTNTNNYFTSVPKNFMELLTNQEAQQWVSGWRLNADSVLWGGHKVFMVKPEEPFQPVKEATQL [I84F], for which the “area with substrate ENLYFCS” value came to 0.0478, the “area with substrate ENLYFFS” value came out at 0.0579, the “area with substrate ENLYFIS” value is 0.059 and the “area with substrate ENLYFNS” value was 0.0444. For the same variant, the “area with substrate ENLYFPS” value was determined as 0.0506, the “area with substrate ENLYFRS” value was 0.0498, the “area with substrate ENLYFSS” value is 0.0567 and the “area with substrate ENLYFTS” value was found to be 0.0423. The “area with substrate ENLYFVS” value turned out to be 0.0534 and the “area with substrate ENLYFWS” value is 0.0565.
As to MGESLFKGPRDYNPISSSICHLTNESDGHTTSLYGIGFGPFIITNKHLFRRNNGTLVVQSLHGVFKVKDTTTLQQHLVDGRDMIIIRMPKDFPPFPQKLKFREPQREERICLVTTNFQTKSMSSMVSDTSCTFPSGDGIFRKHWIQTKDGQCGSPLVSTRDGFIVGIHSASNFTNTNNYFTSVPKNFMELLTNQEAQQWVSGWRLNADSVLWGGHKVFMVKPEEPFQPVKEATQL [W141R], the “area with substrate ENLYFCS” value is 0.0518, the “area with substrate ENLYFDS” value worked out at 0.0594, the “area with substrate ENLYFES” value was found to be 0.0586 and the “area with substrate ENLYFFS” value was found to be 0.0638. For the same variant, the “area with substrate ENLYFGS” value was found to be 0.0556, the “area with substrate ENLYFHS” value is 0.0551, the “area with substrate ENLYFIS” value worked out at 0.0526 and the “area with substrate ENLYFMS” value was determined as 0.0733. Also, the “area with substrate ENLYFNS” value worked out at 0.0593, the “area with substrate ENLYFPS” value came to 0.0589, the “area with substrate ENLYFRS” value was 0.0546 and the “area with substrate ENLYFSS” value amounted to 0.0755. For the same variant, the “area with substrate ENLYFTS” value amounted to 0.0631 and the “area with substrate ENLYFYS” value worked out at 0.0503.
MGESLFKGPRDYNPISSSICHLTNESDGHTTSLYGIGFGPFIITNKHLFRRNNGTLVVQSLHGVFKVKDTTTLQQHLVDGRDMIIIRMPKDFPPFPQKLKFREPQREERICLVTTNFQTKPMSSMVSDTSCTFPSGDGIFWKHWIQTKDGQCGSPLVSTRDGFIVGIHSASNFTNTNNYFTSVPKNFMELLTNQEAQQWVSGWRLNADSVLWGGHKVFMVKPEEPFQPVKEATQL [S121P]: the “area with substrate ENLYFCS” value was found to be 0.0679, the “area with substrate ENLYFDS” value came out at 0.0597, the “area with substrate ENLYFES” value came out at 0.0445 and the “area with substrate ENLYFHS” value is 0.0691. In addition, the “area with substrate ENLYFIS” value amounted to 0.0631, the “area with substrate ENLYFMS” value was 0.0676, the “area with substrate ENLYFPS” value is 0.0584 and the “area with substrate ENLYFRS” value turned out to be 0.0568. Moreover, the “area with substrate ENLYFSS” value is 0.0635, the “area with substrate ENLYFWS” value was 0.0606 and the “area with substrate ENLYFYS” value worked out at 0.0658.
Turning to MGESLFKGPRDYNPISSSICHLTNESDGHTTSLYGIGFGPFIITNKHLFRRNNGTLVVQSLHGVFKVKDTTTLQQHLVDGRDMIIIRMPKDFPPFPQKLKFREPQREERICLVTTNFQTKGMSSMVSDTSCTFPSGDGIFWKHWIQTKDGQCGSPLVSTRDGFIVGIHSASNFTNTNNYFTSVPKNFMELLTNQEAQQWVSGWRLNADSVLWGGHKVFMVKPEEPFQPVKEATQL [S121G], the “area with substrate ENLYFCS” value amounted to 0.0489, the “area with substrate ENLYFES” value was found to be 0.0602, the “area with substrate ENLYFFS” value came out at 0.0646 and the “area with substrate ENLYFGS” value is 0.0554. The “area with substrate ENLYFHS” value is 0.0538, the “area with substrate ENLYFIS” value was 0.0496, the “area with substrate ENLYFKS” value is 0.0709 and the “area with substrate ENLYFLS” value turned out to be 0.0607. Moreover, the “area with substrate ENLYFMS” value turned out to be 0.0639, the “area with substrate ENLYFNS” value came to 0.0581, the “area with substrate ENLYFPS” value was found to be 0.0676 and the “area with substrate ENLYFTS” value worked out at 0.0542. The “area with substrate ENLYFYS” value was 0.0485.
MGESLFKGPRDYNPISSSICHLTNESDGHTTSLYGIGFGPFIITNKHLFRRNNGTLVVQSLHGVFKVKDTTTLQQHLVDGRDMIIIRMPKDFPPFPQKLKFREPQREERICLVTTNFQTKSMSSMVSDTSCTFPSYDGIFWKHWIQTKDGQCGSPLVSTRDGFIVGIHSASNFTNTNNYFTSVPKNFMELLTNQEAQQWVSGWRLNADSVLWGGHKVFMVKPEEPFQPVKEATQL [G136Y]: the “area with substrate ENLYFCS” value stood at 0.0572, the “area with substrate ENLYFES” value amounted to 0.0479, the “area with substrate ENLYFFS” value is 0.0726 and the “area with substrate ENLYFIS” value turned out to be 0.0623. In addition, the “area with substrate ENLYFKS” value is 0.0738, the “area with substrate ENLYFMS” value was 0.0595, the “area with substrate ENLYFNS” value is 0.059 and the “area with substrate ENLYFPS” value stood at 0.0514. In addition, the “area with substrate ENLYFRS” value is 0.0571, the “area with substrate ENLYFTS” value came out at 0.0609, the “area with substrate ENLYFWS” value is 0.0719 and the “area with substrate ENLYFYS” value is 0.0533.
For the variant MGESLFKGPRDYNPISSSICHLTNESDGHTTSLYGIGFGPFIITNKHLFRRNNGTLVVQSLHGVFKVKNTTTLQQHLVDGRDMIIIRMPKDFPPFPQKLKFREPQREERICLVTTNFQTKSMSSMVSDTSCTFPSGDGIFWKHWIQTKDGQCGSPLVSTRDGFIVGIHSASNFTNTNNYFTSVPKNFMELLTNQEAQQWVSGWRLNADSVLWGGHKVFMVKPEEPFQPVKEATQL [D69N], the “area with substrate ENLYFCS” value turned out to be 0.0527, the “area with substrate ENLYFDS” value stood at 0.0515, the “area with substrate ENLYFFS” value is 0.0585 and the “area with substrate ENLYFHS” value amounted to 0.0573. For the same variant, the “area with substrate ENLYFIS” value worked out at 0.0672, the “area with substrate ENLYFPS” value was 0.06 and the “area with substrate ENLYFVS” value was found to be 0.0445.
